According to PubChem BioAssay AID1963576 (National Center for Advancing Translational Sciences (NCATS), 2024):
About 60 (0.1%) of roughly 46,000 compounds were called active. Inconclusive results (about 3%) are left out. Calls come from the whole dose curve; as a rule, active = well fitted inhibition curve with a large enough effect; inconclusive = small, poorly fitted or top-dose-only effect; inactive = no such curve, though single readings can be large or run the other way. The list shows a part of the results.

Assay: Primary qHTS assay for Inhibitors of ovarian cancer metastasis using an organotypic tumor microenvironment (TME) model.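 For activity change, negative = inhibition: plate controls were DMSO wells for no effect and tomatine positive control wells for full effect.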 Note: nearly all actives have a fitted effect of over 65% in size.
Conditions: SKOV3ip1-GFP adhesion/invasion on 3D omental model, fluorescence; series mostly up to 45.8 µM; activity change, negative = inhibition: at the top concentration
In short: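 A 3D layer of primary human omental fibroblasts, mesothelial cells, fibronectin and collagen I, grown 48 hr, received SKOV3ip1-GFP cells in serum-free medium plus compounds at 0.36-46 umol/L. After 2 hr RT and 16 hr 37 C, fixed adherent GFP cells were counted; normalized to DMSO and tomatine.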

Activity change, negative = inhibition, inactive:
COc1ccc(-c2cnn3c(C)cc(C)nc23)cc1OC 5.42%
CSc1ccc(CCNC(=O)CN2C(=O)c3cccnc3Oc3ccc(Cl)cc32)cc1 4.26%
Cc1ccc(-c2noc(CCCC(=O)NCc3ccco3)n2)cc1 0.134%
CCOc1ccc(CCNC(=O)CSc2cc(=O)n(C)c3cc(Cl)ccc23)cc1OCC 0.822%
CCCOc1ccc(C(=O)Nc2ccc(Cl)c(-c3nc4ncccc4o3)c2)cc1 0.949%
O=C(CSc1nc(-c2cccs2)nc2cc(=O)[nH]n12)Nc1ccccc1F 14.2%
COc1cc(C(=O)N2CCc3c([nH]c4ccccc34)C2c2ccc(C)cc2)cc(OC)c1OC (stereo not given) -19.1%
Nc1c(-c2nc(-c3ccc4c(c3)OCO4)cs2)c2ccccn2c1C(=O)c1ccccc1 -4.65%
Cc1ccc(NC(=O)c2c(C)oc3nc(C)nc(N4CCCC4)c23)c(C)c1 -10.4%
CC(Sc1cn(CCNC(=O)c2ccccc2F)c2ccccc12)c1ccccc1 (stereo not given) -16.7%
O=S(=O)(c1ccc(F)cc1)N(Cc1nc(-c2ccc(Cl)cc2)no1)C1CCCCC1 6.77%
Cc1ccc2c(=O)c(C(=O)c3ccc(Cl)cc3)cn(CC(=O)NC3CCCCC3)c2n1 -4.73%
COc1ccc(NC(=O)c2c(NCc3sccc3C)sc3c2CCCCC3)c(OC)c1 5.05%
COc1ccc(C)cc1NC(=O)Cn1c(=O)ccc2cc(S(=O)(=O)N3CCC(C)CC3)ccc21 -18.2%
COC(=O)C(C)n1nnc2sc(-c3ccccc3)cc2c1=O (stereo not given) -1.91%
COC(=O)c1sccc1S(=O)(=O)N(CC(=O)Nc1c(C)cccc1C)c1ccc(C)c(C)c1 3.75%
COc1ccc2c(c1)c(=O)c(S(=O)(=O)c1ccc(C)cc1)cn2Cc1ccccc1C -5.01%
O=C(CCS(=O)(=O)c1cc(Br)cc2c1N(C(=O)C1CC1)CC2)NCc1ccccc1Cl 10.2%
Cc1c(NC(=O)c2cccc3c(Cl)cccc23)cccc1-c1nc2ccccc2o1 0.634%
COc1ccc(Br)cc1C(=O)Nc1ccc(-c2nc3cc(Cl)ccc3o2)cc1 -6.02%
CC(=O)c1ccc(NC(=O)Cn2cc(S(=O)(=O)Cc3ccccc3Cl)c3ccccc32)cc1 8%
Cc1c(Cl)cccc1NC(=O)Nc1nnc(N(C)Cc2ccccc2)s1 -0.0587%
COCCCNC(=O)CSc1nc2cc3c(cc2c(=O)n1CCCC(=O)NCc1ccc(OC)cc1)OCO3 -1.59%
Cn1c(=O)c2c(nc(Oc3ccccc3)n2Cc2c(Cl)cccc2Cl)n(C)c1=O -10.2%
COc1ccc(N(CC(=O)Nc2cc(C)ccc2C)S(=O)(=O)c2ccc(OC)c(OC)c2)cc1 5.03%
O=C(COc1ccccc1[N+](=O)[O-])Nc1cccc(-c2nc3ccccc3s2)c1 0.107%
CCc1ccc(C2c3c(oc4ccc(F)cc4c3=O)C(=O)N2c2nc(C)c(C(=O)OC)s2)cc1 (stereo not given) 0.276%
O=C(Nc1ccc(F)cc1F)c1ccc2c(O)c(S(=O)(=O)c3ccc(Cl)cc3)c(=O)[nH]c2c1 0.919%
COc1cc(NC(=O)CSc2nc3nc(C)c(Cc4ccc(C)cc4)c(C)n3n2)cc(OC)c1OC 6.2%
CCOc1ccc(NC(=O)CN2C(=O)COc3ccc(S(=O)(=O)NC4CCCC4)cc32)cc1 -5.82%
O=C(COCc1cc(-c2ccc3c(c2)OCO3)on1)NCc1ccccc1Cl -5.63%
O=C(CSc1cn(CC(=O)N2CCOCC2)c2ccccc12)Nc1ccccc1 0.574%
O=C(Nc1c(C(=O)O)oc2ccccc12)c1ccc(C(F)(F)F)cc1 16%
Cc1ccccc1Cc1c(C)nc2nc(SCC(=O)NCCc3ccc(Cl)cc3)nn2c1C 12.9%
O=C(COc1ccccc1)Nc1ccccc1OCc1cc(=O)n2ccccc2n1 1.97%
CCOc1ccc(C(=O)Nc2ccc(S(=O)(=O)Nc3nc(C)cc(C)n3)cc2)cc1OC 2.9%
NC(=O)c1ccc2[nH]ccc2c1 -18.1%
COc1ccccc1OCC(=O)NCc1nc(-c2ccc(Cl)cc2)no1 -9.54%
CCOc1ccc(CCNC(=O)Cn2nc(-c3ccc(C)cc3)ccc2=O)cc1OCC -17.8%
CCN(CC)S(=O)(=O)c1ccc2c(c1)N(CC(=O)N1CCN(c3ccc(F)cc3)CC1)C(=O)CO2 -5.23%
Cc1ccc(-c2nc(CCNC(=O)C(=O)Nc3ccc(C)cc3C)cs2)cc1 -3.45%
O=C(NCCc1nc2ccccc2n1Cc1ccc(F)cc1)c1ccco1 -4.51%
COc1ccc(CNC(=O)c2ccc(CS(=O)(=O)c3ccccc3OC)o2)cc1 -4.25%

outcome, inactive:
COc1cccc(-c2nc(SCC(=O)NC3CCCC3)c(-c3ccccc3)[nH]2)c1
CCOc1ccc(CCNC(=O)CCc2c(C)nc3cc(-c4ccccc4OC)nn3c2C)cc1
Cc1c(-c2nsc(NC(=O)c3cccc(Cl)c3)n2)nnn1-c1ccccc1C(F)(F)F
CCCCn1c(NCc2cc(Cl)ccc2O)nc2ccccc21
CCN(CCCNC(=O)CSc1cc(=O)n(CC)c2ccccc12)c1cccc(C)c1
CCC(C(=O)Nc1ccccc1OC)n1nc(C)c2sc3ccccc3c2c1=O (stereo not given)
Cc1ccc(C)c(OCC(=O)Nc2ccc(S(=O)(=O)Nc3onc(C)c3C)cc2)c1C
COC(=O)c1ccc(NC(=O)CSc2ncc3c(n2)-c2cc(Cl)ccc2N(Cc2ccccc2)S3(=O)=O)cc1
CCOc1ccc(CCNC(=O)c2ccc(CS(=O)Cc3cccc(Cl)c3)o2)cc1 (stereo not given)
Cc1ccc(NC(=O)CCC(=O)N2CCSc3ccccc32)cc1Cl
CCC(C(=O)Nc1cc(F)ccc1F)n1nc(-c2cc(C)ccc2C)ccc1=O (stereo not given)
CCOC(=O)N1CCc2c(sc3c2c(=O)n(Cc2ccccc2)c(=O)n3CC(=O)Nc2ccc(C)c(C)c2)C1
CC1=C(C(=O)NCc2ccccc2C)C2(CCCCC2)OC1=O
Cc1c(NC(=O)C(C)(C)Oc2ccc(Cl)cc2)cccc1-c1nc2ncccc2o1
CC1=C(c2ccc(C)c(C)c2)S(=O)(=O)N(Cc2ccc(C(=O)NC(C)c3ccccc3)cc2)C1=O (stereo not given)
Cc1ccc(C)c(-c2[nH]c3c(c2-c2c(-n4cccc4)n(C)c(=O)[nH]c2=O)c(=O)[nH]c(=O)n3C)c1
O=C(CNS(=O)(=O)c1cccs1)N1CCN(c2cccc(C(F)(F)F)c2)CC1
